Assay results: publication PMC5510750 (Immunity, 2017)

Target: T1, IFN-αR2, recombinant receptor (UniProt P48551 34-232)
T1 sequence: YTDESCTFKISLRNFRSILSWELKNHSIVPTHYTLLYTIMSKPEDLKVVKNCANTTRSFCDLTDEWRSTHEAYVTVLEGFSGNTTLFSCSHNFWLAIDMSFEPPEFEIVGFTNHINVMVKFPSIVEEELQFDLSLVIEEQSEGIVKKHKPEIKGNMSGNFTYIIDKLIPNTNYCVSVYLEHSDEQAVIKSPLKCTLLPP
Assay: SPR

B1: IFN-ω (Lys152Arg) (ligand)
chain: not shown
Binder B1 has a Kd of 0.2 nM.
